ChEMBL document CHEMBL4888484, “Replenishing the malaria drug discovery pipeline: Screening and hit evaluation of the MMV Hit Generation Library 1 (HGL1) against asexual blood stage Plasmodium falciparum ,using a nano luciferase reporter read-out” (2022)
In all, about 150,000 compounds went through this assay and about 540 (0.36%) showed an effect of 50% or more. The list shows a part of the results.

The compounds below were run on Plasmodium falciparum (assay: Primary screen in NF54 nanoGlo assay, in single point, at 2uM, 72h; a lower Z score goes with more inhibition). Settings: timepoint 72 hour.
Format: functional, Erythrocyte

Compared with `Cc1nc([C@@H]2CCCN2C(=O)C2CCCCC2)n(CCc2cnc[nH]2)n1`, `O=C(CCS(=O)(=O)C1CCCC1)N1CCC[C@H]1c1ccc(Cl)c(Cl)c1` is higher in “% Inhibition” value: -12% for the first, 2% for the second.

Compared with `O=C1CC[C@H](CCNS(=O)(=O)c2ccccc2)CCN1CC1CC1`, `O=C(c1csc(S(=O)(=O)NCc2ccccc2)c1)N1CCCC1` is lower in “% Inhibition” value: 29% for the first, -8% for the second.

Compared with `C[C@@H](CCO)CNC(=O)CC1(C)CCCCC1`, `CC1CC(C)(C)CC(CO)(NCC(=O)NC(C)C)C1` (stereo not drawn) is lower in “% Inhibition” value: -12% for the first, -17% for the second.

Going from `Cn1cncc1CNc1ccc(-c2ccccc2)cn1` to `NC(=O)Cn1cc(-c2ccccc2-c2ccccc2)cn1`, the “% Inhibition” value rises from -3% to 8%.

First: CN(Cc1ccncc1)Cc1cn(C)nc1C(C)(C)C
Second: CCCn1cnnc1CN(C)Cc1c(Cl)ccc(O)c1Cl
The “% Inhibition” value of the first is lower: -2% for the first, -1% for the second.

First: COc1c(C)cc(C(=O)[C@H]2CCCN(Cc3ccc4cc(NC(C)=O)ccc4n3)C2)cc1C
Second: Cc1csc([C@@H](C#N)C(=O)c2ccc3nc(C)ccc3c2)n1
The “% Inhibition” value of the first is higher: 7% for the first, -13% for the second.

First: CCC(C)(C)CNC(=O)Nc1ncn(C(C)(C)C)n1
Second: COc1cnc(NC(=O)NCCc2ccnn2C)cn1
The “% Inhibition” value of the first is lower: -9% for the first, 1% for the second.

Going from `CCCc1nc(NC(=O)N2CC[S@+]([O-])C(C)(C)C2)sc1CC` to `CC(=O)N(c1nc(C2NC(=O)[C@@H]3[C@@H](C)OCCN23)cs1)C1CC1` (stereo partly drawn), the “% Inhibition” value rises from -2% to 20%.

Compared with `Cn1cnc2c(c1=O)CCN(Cc1nnc3n1CCCCC3)C2`, `Cc1ccc(-c2nn(C)c(=O)c3c2CCCC3)cc1S(=O)(=O)NC1CCCCCC1` is lower in “% Inhibition” value: -3% for the first, -9% for the second.

Compared with `CCCCC12CN(S(=O)(=O)c3ccccc3)CC(C)(CN(S(=O)(=O)c3ccccc3)C1)C2=O`, `OC[C@@]1(CCc2ccccc2)CCCN(C2CCN(Cc3ccccc3)CC2)C1` is lower in “% Inhibition” value: 39% for the first, -13% for the second.

Going from `COc1ccccc1N1CCN(c2ncccc2CNCc2cnc(C)n2C)CC1` to `Cc1nn(-c2ccccc2)c2nc(N3CCN(C(=O)c4cccc(F)c4)CC3)sc12`, the “% Inhibition” value falls from 1% to -9%.

`CCS(=O)(=O)N(CC(=O)N(Cc1ccc(C)cc1)C1CCN(C(=O)c2ccc(C)cc2)CC1)CC(C)C` and `Cc1ccc(CCCC(=O)N(C2CC2)[C@@H](C)CS(C)(=O)=O)cc1` are the same in “% Inhibition” value: 2% for the first, 2% for the second.

Going from `Cc1c(CCC(=O)NCc2ccn3ccnc3c2)cnn1C` to `CC[C@@H](C(=O)NCCc1ccccn1)n1c(Cc2ccccc2F)nc2cc(Cl)c(Cl)cc21`, the “% Inhibition” value rises from -21% to 0%.

First: Cc1ccc(-c2noc([C@@H]3CN(C)C(=O)N3)n2)cc1
Second: CN(C)c1cccc(C(=O)Nc2ccc(C3=NNC(=O)CC3)cc2)c1
The “% Inhibition” value of the first is higher: -4% for the first, -15% for the second.

Compared with `O=C1CC[C@@H]2CN(c3nccc4ccccc34)CC[C@@H]2N1CCCCO`, `CCOc1nccc(C)c1C(=O)N1CC[C@@H](Oc2ccccc2)C1` is lower in “% Inhibition” value: 6% for the first, -10% for the second.

Going from `Cc1ccc(N(C)C(C)C)c(C(=O)N2CCS(=O)(=O)C[C@@H]2C)c1` to `Cc1cc(NC(=O)N[C@@H](C)CO)ccc1N(C)C`, the “% Inhibition” value falls from -2% to -4%.

Compared with `COc1ccc(CN(C(=O)NCc2ccco2)C2CCCC2)c(OC)c1`, `CCC[C@H](N)C(=O)N(C)Cc1ccco1` is lower in “% Inhibition” value: 13% for the first, 6% for the second.

Compared with `COc1ccc(CCNC(=O)c2c(O)c3cccc4c3n(c2=O)CC4)cc1`, `CC[C@@H](C(=O)NCc1ccccc1F)n1nc(C)c2nn(-c3ccccc3)c(C)c2c1=O` is higher in “% Inhibition” value: -12% for the first, 1% for the second.

Compared with `O=S(=O)(c1cccnc1)N1CCN(Cc2noc(C3CC3)n2)CC1`, `CCOc1ccc(S(=O)(=O)NC2CCN3CCCCC23)cc1` (stereo not drawn) is higher in “% Inhibition” value: -5% for the first, -2% for the second.

Compared with `CCC(C)(CC)NC(=O)[C@H]1C[C@H](OC)CN1S(C)(=O)=O`, `O=C(Nc1ccc(Cl)cc1)[C@@H]1CCCN1S(=O)(=O)Cc1ccc(F)cc1` is higher in “% Inhibition” value: -2% for the first, 0% for the second.

First: C[C@H](Nc1nnc(-c2cccc(S(C)(=O)=O)c2)[nH]1)C1CC1
Second: Cc1cccc(S(=O)(=O)c2cnc(N(C)Cc3ccccc3)nc2N)c1
The “% Inhibition” value of the first is lower: -7% for the first, 1% for the second.

Going from `Cc1nn(C)c(C)c1C(=O)NS(=O)(=O)N1CCc2ccccc21` to `COc1cc(NC(=O)c2ccc3c(c2)OCO3)ccc1-n1cnnn1`, the “% Inhibition” value rises from -3% to 10%.

Compared with `CCN(CC)C(=O)CCC(=O)NCC(OC)(OC)c1ccccn1`, `CC(C)NC(=O)[C@@H]1Cc2[nH]cnc2C2(CCN(C(=O)COc3ccccc3)CC2)N1` is lower in “% Inhibition” value: 5% for the first, -6% for the second.

Compared with `CCC(CC)C1CC(NC(=O)c2cccc(C3CCOC3)c2)CCO1` (stereo not drawn), `Cc1cccc(C(=O)N[C@H]2CCOC3(CC(C(=O)O)C3)C2)c1Cl` (stereo partly drawn) is lower in “% Inhibition” value: 4% for the first, -7% for the second.

First: CN1CCC(NCCOCc2ccc(Cl)cc2Cl)CC1
Second: O=C(c1cnn2c1OCCC2)N1CCN(c2cccc(C(F)(F)F)c2)CC1
The “% Inhibition” value of the first is higher: 0% for the first, -13% for the second.

First: O=C(NC1CCCOCC1)C1CC2CCC1CC2 (stereo not drawn)
Second: O=C(c1ccc(-n2ccc(-c3cnccn3)n2)cc1)C1CC1
The “% Inhibition” value of the first is higher: 15% for the first, -8% for the second.

Going from `COCCn1cncc1CN(C)[C@@H](C)c1nc(C)cs1` to `N#Cc1cccc(-c2nccc3ccccc23)c1`, the “% Inhibition” value falls from 0% to -10%.

Going from `Cc1nc([C@@H]2CCCN2C(=O)C2CCCCC2)n(CCc2cnc[nH]2)n1` to `O=C(CCS(=O)(=O)C1CCCC1)N1CCC[C@H]1c1ccc(Cl)c(Cl)c1`, the Z score falls from 2.28 to -0.3.

Going from `O=C1CC[C@H](CCNS(=O)(=O)c2ccccc2)CCN1CC1CC1` to `O=C(c1csc(S(=O)(=O)NCc2ccccc2)c1)N1CCCC1`, the Z score rises from -3.85 to 0.99.

First: C[C@@H](CCO)CNC(=O)CC1(C)CCCCC1
Second: CC1CC(C)(C)CC(CO)(NCC(=O)NC(C)C)C1 (stereo not drawn)
The Z score of the first is lower: 1.61 for the first, 2.32 for the second.

First: Cn1cncc1CNc1ccc(-c2ccccc2)cn1
Second: NC(=O)Cn1cc(-c2ccccc2-c2ccccc2)cn1
The Z score of the first is higher: 0.28 for the first, -1.46 for the second.

First: CN(Cc1ccncc1)Cc1cn(C)nc1C(C)(C)C
Second: CCCn1cnnc1CN(C)Cc1c(Cl)ccc(O)c1Cl
The Z score of the first is higher: 0.22 for the first, 0.15 for the second.

First: COc1c(C)cc(C(=O)[C@H]2CCCN(Cc3ccc4cc(NC(C)=O)ccc4n3)C2)cc1C
Second: Cc1csc([C@@H](C#N)C(=O)c2ccc3nc(C)ccc3c2)n1
The Z score of the first is lower: -1.04 for the first, 1.19 for the second.

Compared with `CCC(C)(C)CNC(=O)Nc1ncn(C(C)(C)C)n1`, `COc1cnc(NC(=O)NCCc2ccnn2C)cn1` is lower in Z score: 1.01 for the first, -0.13 for the second.

First: CCCc1nc(NC(=O)N2CC[S@+]([O-])C(C)(C)C2)sc1CC
Second: CC(=O)N(c1nc(C2NC(=O)[C@@H]3[C@@H](C)OCCN23)cs1)C1CC1 (stereo partly drawn)
The Z score of the first is higher: 0.18 for the first, -2.54 for the second.

Going from `Cn1cnc2c(c1=O)CCN(Cc1nnc3n1CCCCC3)C2` to `Cc1ccc(-c2nn(C)c(=O)c3c2CCCC3)cc1S(=O)(=O)NC1CCCCCC1`, the Z score rises from 0.63 to 1.41.

First: CCCCC12CN(S(=O)(=O)c3ccccc3)CC(C)(CN(S(=O)(=O)c3ccccc3)C1)C2=O
Second: OC[C@@]1(CCc2ccccc2)CCCN(C2CCN(Cc3ccccc3)CC2)C1
The Z score of the first is lower: -4.99 for the first, 1.16 for the second.

First: COc1ccccc1N1CCN(c2ncccc2CNCc2cnc(C)n2C)CC1
Second: Cc1nn(-c2ccccc2)c2nc(N3CCN(C(=O)c4cccc(F)c4)CC3)sc12
The Z score of the first is lower: -0.12 for the first, 1.03 for the second.

Compared with `CCS(=O)(=O)N(CC(=O)N(Cc1ccc(C)cc1)C1CCN(C(=O)c2ccc(C)cc2)CC1)CC(C)C`, `Cc1ccc(CCCC(=O)N(C2CC2)[C@@H](C)CS(C)(=O)=O)cc1` is higher in Z score: -0.37 for the first, -0.18 for the second.

First: Cc1c(CCC(=O)NCc2ccn3ccnc3c2)cnn1C
Second: CC[C@@H](C(=O)NCCc1ccccn1)n1c(Cc2ccccc2F)nc2cc(Cl)c(Cl)cc21
The Z score of the first is higher: 3.5 for the first, 0.01 for the second.

Going from `Cc1ccc(-c2noc([C@@H]3CN(C)C(=O)N3)n2)cc1` to `CN(C)c1cccc(C(=O)Nc2ccc(C3=NNC(=O)CC3)cc2)c1`, the Z score rises from 0.7 to 2.7.

Compared with `O=C1CC[C@@H]2CN(c3nccc4ccccc34)CC[C@@H]2N1CCCCO`, `CCOc1nccc(C)c1C(=O)N1CC[C@@H](Oc2ccccc2)C1` is higher in Z score: -0.85 for the first, 1.32 for the second.

Going from `Cc1ccc(N(C)C(C)C)c(C(=O)N2CCS(=O)(=O)C[C@@H]2C)c1` to `Cc1cc(NC(=O)N[C@@H](C)CO)ccc1N(C)C`, the Z score rises from 0.15 to 0.59.

Going from `COc1ccc(CN(C(=O)NCc2ccco2)C2CCCC2)c(OC)c1` to `CCC[C@H](N)C(=O)N(C)Cc1ccco1`, the Z score rises from -2.51 to -0.59.

First: COc1ccc(CCNC(=O)c2c(O)c3cccc4c3n(c2=O)CC4)cc1
Second: CC[C@@H](C(=O)NCc1ccccc1F)n1nc(C)c2nn(-c3ccccc3)c(C)c2c1=O
The Z score of the first is higher: 1.08 for the first, -0.18 for the second.

Going from `O=S(=O)(c1cccnc1)N1CCN(Cc2noc(C3CC3)n2)CC1` to `CCOc1ccc(S(=O)(=O)NC2CCN3CCCCC23)cc1` (stereo not drawn), the Z score falls from 0.59 to 0.38.

First: CCC(C)(CC)NC(=O)[C@H]1C[C@H](OC)CN1S(C)(=O)=O
Second: O=C(Nc1ccc(Cl)cc1)[C@@H]1CCCN1S(=O)(=O)Cc1ccc(F)cc1
The Z score of the first is higher: 0.3 for the first, 0.06 for the second.

Compared with `C[C@H](Nc1nnc(-c2cccc(S(C)(=O)=O)c2)[nH]1)C1CC1`, `Cc1cccc(S(=O)(=O)c2cnc(N(C)Cc3ccccc3)nc2N)c1` is lower in Z score: 0.8 for the first, -0.22 for the second.

Compared with `Cc1nn(C)c(C)c1C(=O)NS(=O)(=O)N1CCc2ccccc21`, `COc1cc(NC(=O)c2ccc3c(c2)OCO3)ccc1-n1cnnn1` is lower in Z score: 0.39 for the first, -1.27 for the second.

Compared with `CCN(CC)C(=O)CCC(=O)NCC(OC)(OC)c1ccccn1`, `CC(C)NC(=O)[C@@H]1Cc2[nH]cnc2C2(CCN(C(=O)COc3ccccc3)CC2)N1` is higher in Z score: -0.86 for the first, 0.95 for the second.

Compared with `CCC(CC)C1CC(NC(=O)c2cccc(C3CCOC3)c2)CCO1` (stereo not drawn), `Cc1cccc(C(=O)N[C@H]2CCOC3(CC(C(=O)O)C3)C2)c1Cl` (stereo partly drawn) is higher in Z score: -0.81 for the first, 1.39 for the second.

Compared with `CN1CCC(NCCOCc2ccc(Cl)cc2Cl)CC1`, `O=C(c1cnn2c1OCCC2)N1CCN(c2cccc(C(F)(F)F)c2)CC1` is higher in Z score: 0 for the first, 2.07 for the second.

Going from `O=C(NC1CCCOCC1)C1CC2CCC1CC2` (stereo not drawn) to `O=C(c1ccc(-n2ccc(-c3cnccn3)n2)cc1)C1CC1`, the Z score rises from -2.12 to 0.74.

First: COCCn1cncc1CN(C)[C@@H](C)c1nc(C)cs1
Second: N#Cc1cccc(-c2nccc3ccccc23)c1
The Z score of the first is lower: -0.02 for the first, 1.47 for the second.
